± gives the standard deviation of the averaged measurements. Laboratory Escherichia coli strains with one amino-acid change in an essential protein, pooled on minimal glucose agar with carbenicillin or gentamicin at twice the control MIC (plus kanamycin and chloramphenicol for the plasmids), 48 h. Fold change of barcode share against drug-free plates; higher = less susceptible. Active = above 20 in both replicates (the paper's putatively resistant). '<' = one read or none on drug, '>' = one read or none on a drug-free plate. Shares are relative, so most strains fall below 1 when a few take over. Listed are strains with at least 15 reads on both drug-free plates, and hits; most hits rest on fewer reference reads. Replicate rank correlation about 0.5. Edits are read from barcodes. Some results are limits rather than exact numbers.

B1: lpxK; a variant is named by its letters at X, in order (parent)
chain: MIEKIWSGESPLWRLXLPLSWXYGLVSGAIRLCYKLKLKRAWRAPVPVVVVGNLTAGGNGKTPVVVWLVEQLQQRGIRVGVVSRGYGGKAESYPLLLSADTTTAQAGDEPVLIYQRTDAPVAVSPVRSDAVKAILAQHPDVQIIVTDDGLQHYRLARDVEIVVIDGVRRFGNGWWXPAGPMRERAGRLKSXDAVIVNGGVPRSGEIPMHLLPGQAVNLRTGTRCDVAQLEHXVAXAGIGHPPRFFATLKMCGVQPEKCVPLADHQSLNHADVSALVSAGQTLVMTEKDAVKCRAFAEENWWYLPVDAQLSGDEPAKLLTQLTLLASGN
B2: rpoH; a variant is named by its letters at X, in order (parent)
chain: MTDKMQSLALAPVGNLDSYIRAANAWPMLSADEERALAEKLHYHGDLEAAKTLIXSHLRFVVHIARNYAGYGLPQADLIQEGNIGLMKAVRRFNPEVGVRLXSFAVHWIKAEIHEYVLRNWRIVKVATTKAQRKLFFNLRKTKQRLGWFNQDEVEMVARELGVTSKDVREMESRMAAQDMTFDLSSDDDSDSQPMAPVLYLQDKSSNFADGIEDDNWEEQAANRLTDAMQGLDERSQDIIRARWLDEDNKSTLQELADRYGVSAERVRQLEKNAMKKXRAAIEA
B3: pabA; numbered along this chain (parent)
chain: MILLIDNYDSFTWNLYQYFCELGADVLVKRNDALTLADIDALKPQKIVISPGPCTPDEAGISLDVIRHYAGRLPILGVCLGHQAMAQAFGGKVVRAAKVMHGKTSPITHNGEGVFRGLANPLTVTRYHSLVVEPDSLPACFDVTAWSETREIMGIRHRQWDLEGVQFHPESILSEQGHQLLANFLHR

In the first data set the parent is B1. The experiment in a line: barcode share on antibiotic plates over drug-free plates; higher = less susceptible. Particulars: with Escherichia coli (laboratory strain); antibiotic: carbenicillin; 2× MIC (3.1 µg/mL). On the procedure: (§1)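 A pool of E. coli strains, each edited to carry one amino-acid change in an essential protein, was grown for 48 h on minimal glucose agar with or without antibiotic; strain barcodes were sequenced; mean of two replicates.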
As for LLLVVQ, the “fold change of barcode share” value was found to be 1.15 ± 0.37.
Turning to LLLVVP, the “fold change of barcode share” value is 0.303 ± 0.074.
Same read-out and setting: with LLLVQM the figure was 0.33 ± 0.035; with LLPVVM, 0.417 ± 0.045.
As for LLLDVM, the “fold change of barcode share” value was determined as 0.326 ± 0.0085.

The data set is the same for the next values; noted with them: with Escherichia coli (laboratory strain); antibiotic: gentamicin; 2× MIC (MIC 0.45 µg/mL).
As for LLLVVQ, the “fold change of barcode share” value was under 0.0043.
With LLLVVP, the “fold change of barcode share” value was 0.0224 ± 0.0025.
Still for that read-out and setting: with LLLVQM the figure was 0.00711 ± 0.0025.
LLPVVM: the “fold change of barcode share” value was found to be 0.00585 ± 0.006.
In the case of LLLDVM, the “fold change of barcode share” value was found to be 0.0097 ± 0.0054.
Take WLLVVM: the “fold change of barcode share” value was under 0.015.

Variants of B2 are the subject of another data set. The data set is described as above. Particulars: with Escherichia coli (laboratory strain); antibiotic: carbenicillin; 2× MIC (3.1 µg/mL). The protocol:
as §1
As to LDL, the “fold change of barcode share” value worked out at 0.3 ± 0.082.
The same measure, in the same setting: then LWL, with 0.341 ± 0.22; and LQL, with 0.256 ± 0.029.
WVL: the “fold change of barcode share” value came to 0.369 ± 0.12.
Consider LVL V90Q, for which the “fold change of barcode share” value was determined as 0.154 ± 0.067.
As for LVL V90A, the “fold change of barcode share” value was 0.224 ± 0.15.
The same measure, in the same setting: then DVL, with 0.28 ± 0.11; and QVL, with 0.22 ± 0.092.
Consider LPL, for which the “fold change of barcode share” value worked out at 0.363 ± 0.0065.
Same read-out and setting: with LAL the figure was 0.182 ± 0.049.
Take LVL V61P: the “fold change of barcode share” value came to 0.265 ± 0.067.
On to LVL V61A, for which the “fold change of barcode share” value amounted to 0.238 ± 0.098.
As for LVQ, the “fold change of barcode share” value came out at 0.292 ± 0.08.
On to LVA, for which the “fold change of barcode share” value was found to be 0.237 ± 0.14.
With LVD, the “fold change of barcode share” value came to 0.415 ± 0.18.
In the case of LVW, the “fold change of barcode share” value amounted to 0.251 ± 0.028.
As to LVP, the “fold change of barcode share” value amounted to 0.211 ± 0.032.
Consider AVL, for which the “fold change of barcode share” value was found to be 0.269 ± 0.086.
Turning to LVL F93Q, the “fold change of barcode share” value was determined as 0.158 ± 0.042.
Take LVL F93A: the “fold change of barcode share” value was determined as 0.244 ± 0.2.
LVL F93W: the “fold change of barcode share” value came to 0.289 ± 0.06.
Still for that read-out and setting: then LVL F104A, with 0.13 ± 0.086; and LVL F104W, with 0.261 ± 0.08; and LVL F104Q, with 0.241 ± 0.049.

The same data set, now with this note: with Escherichia coli (laboratory strain); antibiotic: gentamicin; 2× MIC (MIC 0.45 µg/mL).
As for LDL, the “fold change of barcode share” value was under 0.0057.
Regarding LWL, the “fold change of barcode share” value was under 0.00638.
Consider LQL, for which the “fold change of barcode share” value is under 0.00899.
Turning to WVL, the “fold change of barcode share” value was 0.00373 ± 0.0022.
With LVL V90A, the “fold change of barcode share” value was under 0.0138.
Same read-out and setting: then DVL, with under 0.00165.
On the same count and under the same terms, with LVL F60D the figure was under 0.00245.
As for QVL, the “fold change of barcode share” value came out at 0.00376 ± 0.0024.
As for PVL, the “fold change of barcode share” value came out at 0.0138 ± 0.0078.
With LPL, the “fold change of barcode share” value worked out at 0.00871 ± 0.00021.
Still for that read-out and setting: then LAL, with 0.008061 ± 3.5e-05.
In the case of LVQ, the “fold change of barcode share” value worked out at 0.0107 ± 0.0046.
Turning to LVA, the “fold change of barcode share” value was under 0.00787.
Consider LVD, for which the “fold change of barcode share” value is under 0.0101.
On to LVW, for which the “fold change of barcode share” value is under 0.00235.
Take LVP: the “fold change of barcode share” value came out at 0.0144 ± 0.013.
Take AVL: the “fold change of barcode share” value is 0.00712 ± 0.00021.
With LVL F93Q, the “fold change of barcode share” value was under 0.00283.
For LVL F93A, the “fold change of barcode share” value is under 0.00235.
On the same count and under the same terms, with LVL F93W the figure was 0.00553 ± 0.0028; with LVL M87Q, under 0.0168.
Regarding LVL M87D, the “fold change of barcode share” value was under 0.0165.
Same read-out and setting: then LVL F104A, with under 0.0128; and LVL F104W, with under 0.00682; and LVL F104Q, with under 0.00376.

The variants in a further data set derive from B3. The data set is described as above. The conditions noted are these: with Escherichia coli (laboratory strain); antibiotic: carbenicillin; 2× MIC (3.1 µg/mL). The protocol:
as §1
Turning to V143W, the “fold change of barcode share” value was found to be 1.05 ± 0.11.
Turning to V143A, the “fold change of barcode share” value was 0.9 ± 0.038.
In the case of V143D, the “fold change of barcode share” value was determined as 0.945 ± 0.15.
Same read-out and setting: with V143Q the figure was 2.37 ± 0.27; with V143P, 1.097 ± 0.0027; with L118D, 1.57 ± 0.83.
As to L118A, the “fold change of barcode share” value was 3.22 ± 1.3.
Regarding L118P, the “fold change of barcode share” value was found to be 1.77 ± 0.8.
As for L118W, the “fold change of barcode share” value is 0.802 ± 0.37.
In the case of L118Q, the “fold change of barcode share” value was 0.75 ± 0.47.
Same read-out and setting: with I5W the figure was 0.418 ± 0.11; with I5A, 0.543 ± 0.11; with I5P, 0.866 ± 0.16.
Consider I5Q, for which the “fold change of barcode share” value was 1.22 ± 0.6.
For I5D, the “fold change of barcode share” value turned out to be 1.2 ± 1.1.
Take L181A: the “fold change of barcode share” value worked out at 0.31 ± 0.071.
Regarding L181D, the “fold change of barcode share” value amounted to 1.16 ± 0.065.
Regarding L181P, the “fold change of barcode share” value came to 0.719 ± 0.15.
L76P: the “fold change of barcode share” value is 0.574 ± 0.077.
As for L76A, the “fold change of barcode share” value amounted to 0.552 ± 0.096.
With L76W, the “fold change of barcode share” value is 0.58 ± 0.2.
In the case of L76Q, the “fold change of barcode share” value stood at 0.567 ± 0.048.
As to L76D, the “fold change of barcode share” value came to 0.67 ± 0.33.
Same read-out and setting: then L4Q, with 0.494 ± 0.14.
Still for that read-out and setting: with L4A the figure was 1.04 ± 0.26.

The data set is the same for the next values; noted with them: with Escherichia coli (laboratory strain); antibiotic: gentamicin; 2× MIC (MIC 0.45 µg/mL).
For the variant V143W, the “fold change of barcode share” value amounted to 0.0194 ± 0.00066.
On to V143A, for which the “fold change of barcode share” value worked out at 0.0198 ± 0.0035.
V143D: the “fold change of barcode share” value worked out at 0.0189 ± 0.0023.
Consider V143Q, for which the “fold change of barcode share” value amounted to 0.0181 ± 0.00098.
For V143P, the “fold change of barcode share” value was 0.0158 ± 0.0035.
Same read-out and setting: then L118D, with under 0.0146.
Regarding L118A, the “fold change of barcode share” value was under 0.00692.
For the variant L118P, the “fold change of barcode share” value came out at 0.0159 ± 0.0059.
For L118W, the “fold change of barcode share” value is under 0.0163.
For the variant L118Q, the “fold change of barcode share” value was under 0.00595.
For the variant I5W, the “fold change of barcode share” value was found to be 0.0266 ± 0.025.
I5A: the “fold change of barcode share” value was determined as 0.0241 ± 0.022.
With I5P, the “fold change of barcode share” value is 0.0391 ± 0.018.
Regarding I5Q, the “fold change of barcode share” value is 0.0306 ± 0.012.
For L181A, the “fold change of barcode share” value was found to be 0.00562 ± 0.0014.
For the variant L181D, the “fold change of barcode share” value is 0.0305 ± 0.033.
As for L181P, the “fold change of barcode share” value amounted to 0.0251 ± 0.0075.
Still for that read-out and setting: with L76P the figure was 0.0169 ± 0.0088; with L76A, 0.0189 ± 0.00029.
Consider L76W, for which the “fold change of barcode share” value stood at 0.0175 ± 0.014.
Take L76Q: the “fold change of barcode share” value came to 0.00832 ± 0.0074.
Consider L76D, for which the “fold change of barcode share” value is 0.0217 ± 0.011.
As to L4Q, the “fold change of barcode share” value amounted to 0.0154 ± 0.011.
Still for that read-out and setting: then L4A, with 0.0267 ± 0.026.

The values above are taken from the supplement of paper PMC11876631.
